# In PubChem BioAssay (NCATS):
# Inconclusive results, whose numbers are uncertain, are shown with a selection of clear calls. Where the call is inconclusive, the potency comes from a doubtful curve fit. For some of these results: “Side channel” marks fits to a control or component signal instead of the main read-out. Activity calls are given as the source filed them. Unless noted, calls follow the shape of the dose curve; as a rule, active = well fitted curve in the direction sought with a large enough effect; inconclusive = small, poorly fitted or top-dose-only effect, or another doubt; inactive = no such curve, though single readings can be large; an effect the other way counts as inactive or inconclusive.
# Target: 3',5'-cyclic-AMP phosphodiesterase 4B (Homo sapiens) (UniProt Q07343)
# Assay: qHTS Assay for Inhibitors of PDE-IV (AID 607; active = well fitted activation curve with a large enough effect in the main read-out, with a control signal flat, not every such curve was filed as active; inconclusive = small, poorly fitted or top-dose-only effect, or effect the other way, or a change in a side signal; as to activation (PDE inhibition): % of control where 0% means no effect)
# Details: HEK293 ACTOne CNG channel cells, membrane potential fluorescence; activation (PDE inhibition): at 22.9 µM (top of the series)
# Outline: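 HEK293 ACTOne cells with CNG channel (1000/well), endogenous PDE4; membrane potential dye, compounds up to 22.9 uM final. Fluorescence Ex 535/Em 590; RO 20-1724 (100 uM final) as reference.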
# Potency is read from the fitted curve at half-maximal effect; tags tell the direction and shape of the fitted curve or compound fluorescence and quenching.
# Sequence of UniProt Q07343 (Q07343 whole entry, looked up): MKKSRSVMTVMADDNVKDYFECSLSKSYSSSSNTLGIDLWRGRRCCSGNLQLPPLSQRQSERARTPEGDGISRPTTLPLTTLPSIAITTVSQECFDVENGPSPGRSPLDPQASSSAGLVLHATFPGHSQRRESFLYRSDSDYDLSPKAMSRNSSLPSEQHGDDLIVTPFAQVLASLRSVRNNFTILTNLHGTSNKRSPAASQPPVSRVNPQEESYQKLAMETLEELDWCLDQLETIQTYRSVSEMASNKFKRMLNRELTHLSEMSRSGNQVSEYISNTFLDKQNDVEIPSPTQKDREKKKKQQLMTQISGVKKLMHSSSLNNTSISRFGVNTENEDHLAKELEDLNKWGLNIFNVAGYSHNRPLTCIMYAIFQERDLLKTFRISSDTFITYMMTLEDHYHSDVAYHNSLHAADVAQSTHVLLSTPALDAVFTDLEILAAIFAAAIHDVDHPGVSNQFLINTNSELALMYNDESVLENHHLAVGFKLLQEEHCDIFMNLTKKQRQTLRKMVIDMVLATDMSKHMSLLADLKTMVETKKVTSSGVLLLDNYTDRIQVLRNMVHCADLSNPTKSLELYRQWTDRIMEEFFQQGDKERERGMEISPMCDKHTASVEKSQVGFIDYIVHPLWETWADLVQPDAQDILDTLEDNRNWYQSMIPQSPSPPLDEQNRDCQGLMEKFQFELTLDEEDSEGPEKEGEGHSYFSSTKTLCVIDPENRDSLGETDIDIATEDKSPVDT
row,SMILES,Potency
1,COc1ccc(CNc2ccnc(-c3ccoc3)n2)c(OC)c1,"inconclusive: 7.94 µM [activator, partial curve]"
2,Nc1ccc(N(S(=O)(=O)c2ccccc2)S(=O)(=O)c2ccccc2)c(Cl)c1,"inconclusive: 10 µM [activator, single point]"
3,CNc1ncnc2ccc(-c3ccccc3C)cc12,"inconclusive: 10 µM [activator, partial curve]"
4,COc1cccc(-c2cc(N(C)Cc3ccco3)ncn2)c1,inactive
5,COc1ccc(CNc2cc(-c3cccnc3)ncn2)c(OC)c1,inactive

# Target: Cytochrome P450 2C9 (Homo sapiens) (UniProt P11712)
# Assay: qHTS Assay for Inhibitors and Substrates of Cytochrome P450 2C9 (AID 883); also: nearly all actives have a fitted effect of over 60% in size; as to activity change, negative = inhibition: % is scaled to controls: 0 for no effect and ±100 for the full control effect
# Details: recombinant CYP2C9, luciferin-H luminescence, 60 min; activity change, negative = inhibition: at 57.1 µM (top of the series)
# Outline: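 Human CYP2C9 (10nM) hydroxylated Luciferin-H (100uM, at its KM) to luciferin in 25mM KPO4. Compound was preincubated 10 min at 37C, then NADPH regeneration started a 60 min reaction at 37C. Luminescence was read after detection reagent, normalized to 57uM sulphaphenazole.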
# Sequence of UniProt P11712 (P11712 whole entry, looked up): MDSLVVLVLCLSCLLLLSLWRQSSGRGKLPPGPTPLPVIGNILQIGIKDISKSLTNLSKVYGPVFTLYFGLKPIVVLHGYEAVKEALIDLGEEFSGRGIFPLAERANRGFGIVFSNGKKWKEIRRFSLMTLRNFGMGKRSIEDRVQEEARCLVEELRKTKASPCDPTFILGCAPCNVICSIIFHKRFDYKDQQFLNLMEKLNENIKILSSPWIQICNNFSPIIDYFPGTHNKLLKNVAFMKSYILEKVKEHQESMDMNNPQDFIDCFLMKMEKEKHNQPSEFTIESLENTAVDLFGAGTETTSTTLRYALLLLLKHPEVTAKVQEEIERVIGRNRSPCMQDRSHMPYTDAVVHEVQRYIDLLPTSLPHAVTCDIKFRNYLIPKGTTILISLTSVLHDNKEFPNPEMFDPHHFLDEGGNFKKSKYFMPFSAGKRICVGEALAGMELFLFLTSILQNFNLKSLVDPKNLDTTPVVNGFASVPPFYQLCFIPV
SMILES,Potency,"activity change, negative = inhibition"
ON(CCc1ccncc1)Cc1ccccc1,active: 3.98 µM,
Nc1ccc(N(S(=O)(=O)c2ccccc2)S(=O)(=O)c2ccccc2)c(Cl)c1,active: 3.16 µM,
O=C(O)[C@H]1CCc2ccc3ccccc3c2[C@H]1c1cccc2ccccc12,"inconclusive: 7.94 µM [inhibitor, single point]",
CN(C)Cc1cc(O)c(O)c(CN(C)C)c1,"inconclusive: 7.94 µM [inhibitor, single point]",
C=CCC1(O)C=CCC2C3C4C(OC(C)(C)C)C2C1C34 (configuration not stated),,inactive: -12.7% [at 11.4 µM]

# System: not listed separately
# Assay: qHTS Assay for Identification of Small Molecule Agonists for Hypoxia Response Element Signaling Pathway (AID 914; active = well fitted activation curve with a large enough effect in the signal ratio, with a control signal flat, not every such curve was filed as active; inconclusive = small, poorly fitted or top-dose-only effect, or effect the other way, or a change in a side signal; the % refers to the signal ratio; as to activation: top concentration of the series differs between compounds; % of control where 0% means no effect)
# Details: ME-180 (cervical carcinoma) HRE-bla reporter, beta-lactamase ratio, CoCl2, 17 h; activation: active compounds read high
# Outline: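 A beta-lactamase reporter under hypoxia response element control in ME-180 cells served as the system. Compound titrations plus EC50 CoCl2 ran 17 h at 37 degrees Celsius; AC50 values were fitted from %Activity.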
SMILES,Potency,activation
Cc1nnc2n(Cc3ccccc3)c(=O)c3c4c(sc3n12)COC(C(C)C)C4 (configuration not stated),"inconclusive: 12.6 µM [inhibitor, single point]",
COc1ccc(CNc2ccnc(-c3ccoc3)n2)c(OC)c1,,inactive: 16.3%
COc1cccc(Nc2ncc3nc(C)c(=O)n(C4CC4)c3n2)c1,,inactive: -3.86%
CCCOc1ccc(N2C(=O)C3ON(c4ccccc4)C(c4ccc(O)c(OC)c4)C3C2=O)cc1 (configuration not stated),"inconclusive: 7.94 µM [inhibitor, partial curve, poor fit]",
CCC(=O)Nc1nc(C)c(Oc2ccccc2)c(=O)[nH]1,,inconclusive: 31%
NC(Cc1ccccc1)(C(=O)O)C(=O)O,"inconclusive: 0.199 µM [inhibitor, full curve, poor fit]",
O=C(O)[C@H]1CCc2ccc3ccccc3c2[C@H]1c1cccc2ccccc12,"inconclusive: 5.01 µM [inhibitor, single point]",
N#CCCn1c(=O)c(CCc2ccccc2)nc2cnc(Nc3ccccc3)nc21,"inconclusive: 3.16 µM [fluorescent, side channel, single point]",
CC12CN3CC(C)(CN(C1)C3c1ccc(Br)cc1O)C2 (configuration not stated),,inactive: -25.5%
C#C[C@@]1(O)CC[C@@H]2[C@@H]3CCC4=CC(=O)CC[C@@H]4[C@H]3CC[C@]21CC,,inconclusive: -26.4%
Cc1cc(=O)oc(C)c1C(=O)NCCN1CCOCC1,,inconclusive: -11.1%
CC(CCc1nc2ccccc2s1)(c1ccc(O)cc1)c1ccc(O)cc1,"inconclusive: 3.16 µM [inhibitor, single point]",
O=C(NCCN1CCCCC1)c1ccc(=O)oc1,,inconclusive: -9.13%
COc1ccc2c(c1)c1c(C)c3cnccc3c(C)c1n2CCCN,"inconclusive: 5.01 µM [inhibitor, single point]",
CSc1ccccc1NC(=O)c1c(Br)cnn1C,,inactive: 27.6%
CS(=O)(=O)N1CCC2(CC1)CN(c1ccccc1)C2,"inconclusive: 0.0016 µM [inhibitor, full curve]",
CSc1nc(N2CCCC2)c2c(c1C#N)CC(C)(C)OC2,,inconclusive: -56.3%
CN(C)Cc1cc(O)c(O)c(CN(C)C)c1,,inconclusive: -31.9%
O=C(O)CCN1C(=S)CSC1=S,,inconclusive: -9.18%
Cc1cccn2c(=O)c(/C=C(\C#N)S(=O)(=O)c3ccccc3)c(N3CCN(C)CC3)nc12,,inactive: -11.6%
c1cncc(-c2cncnc2NC2CCNCC2)c1,"inconclusive: 3.98 µM [activator, single point]",
N#Cc1c(N)nc(SCC(=O)NCc2ccc3c(c2)OCO3)c(C#N)c1-c1cccs1,,inconclusive: -11.6%

# Target: DNA polymerase eta (Homo sapiens) (UniProt Q9Y253)
# Assay: qHTS for Inhibitors of Polymerase Eta: Confirmatory Assay for Cherry-picked Compounds (AID 720502)
# Details: Pol eta primer extension, TAMRA/BHQ fluorescence, 10 min
# Outline: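 Strand-displacement fluorescence (525 nm excitation, 598 nm emission) was read kinetically at 0 and 10 min after adding 50 nM final TAMRA-reporter/BHQ-2-template substrate. Beforehand, 10 nM Pol eta had been exposed to compound for 15 min at room temperature.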
# Sequence of UniProt Q9Y253 (Q9Y253 whole entry, looked up): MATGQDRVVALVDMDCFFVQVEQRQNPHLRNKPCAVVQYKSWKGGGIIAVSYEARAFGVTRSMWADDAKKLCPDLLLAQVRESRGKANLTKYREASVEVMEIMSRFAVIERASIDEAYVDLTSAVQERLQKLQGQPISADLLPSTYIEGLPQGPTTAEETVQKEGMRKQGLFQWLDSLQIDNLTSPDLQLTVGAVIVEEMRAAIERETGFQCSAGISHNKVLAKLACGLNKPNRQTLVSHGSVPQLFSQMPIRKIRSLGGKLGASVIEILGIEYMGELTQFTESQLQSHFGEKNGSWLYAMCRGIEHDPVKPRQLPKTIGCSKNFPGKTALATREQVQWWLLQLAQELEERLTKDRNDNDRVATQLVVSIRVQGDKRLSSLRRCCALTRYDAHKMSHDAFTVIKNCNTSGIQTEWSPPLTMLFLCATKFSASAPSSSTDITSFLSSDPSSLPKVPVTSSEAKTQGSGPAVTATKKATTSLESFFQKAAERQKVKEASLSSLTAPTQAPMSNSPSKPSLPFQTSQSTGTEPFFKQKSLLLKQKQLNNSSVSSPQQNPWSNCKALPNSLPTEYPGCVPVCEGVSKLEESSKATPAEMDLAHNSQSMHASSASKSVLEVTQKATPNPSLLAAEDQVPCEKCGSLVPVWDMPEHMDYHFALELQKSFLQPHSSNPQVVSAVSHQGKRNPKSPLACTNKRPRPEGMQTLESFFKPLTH
row,SMILES,Potency
1,O=C(O)C1C2C=CC3(O2)C1C(=O)N1c2ccccc2C2OCCC2C13 (configuration not stated),"inconclusive: 84.9 µM [inhibitor, single point]"
2,O=C1NC(=S)SC1=C1CCCC1,"inconclusive: 84.9 µM [inhibitor, single point]"
3,Oc1ccc2ccccc2c1C=NC12CN3CCN(CN(C3)C1)C2,"inconclusive: 84.9 µM [inhibitor, single point]"
4,Cc1onc(-c2ccccc2Cl)c1C(=O)NCc1ccco1,"inconclusive: 75.7 µM [inhibitor, single point]"
5,CCC(=O)c1ccc(CCCCCC(=O)O)s1,active: 37.9 µM
